Source: the supplement of paper PMC8047034
Where a name gives a salt, the structure may show the parent alone. Some of the results follow. Repeats are few or missing, and single values can be far off.

test system: OVCAR4; test: log2 surviving fraction (library drug vs vehicle, or drug + carboplatin vs carboplatin alone; relative to plate median); ovarian cancer lines: OVCAR4 is platinum-sensitive and Ov4Carbo platinum-resistant; higher = more cell survival; conditions: library drug concentration 10 µM; 7 days; carboplatin co-treatment 5 µM

SMILES | log2 surviving fraction
O=C(O)CCCN1CCC(O[C@@H](c2ccc(Cl)cc2)c2ccccn2)CC1 [Bepotastine Besilate] | -0.211
COC(=O)N/N=C/c1c[n+]([O-])c2ccccc2[n+]1[O-] [Carbadox] | 0.101
CCOC(=O)CC(=O)N1CCSC1COc1ccccc1OC (configuration not stated) [Moguisteine] | 1.21
CCC1(c2ccc(N)cc2)CCC(=O)NC1=O (configuration not stated) [Aminoglutethimide (Cytadren)] | 0.763
CC(=O)O[C@H]1C[C@@H]2CC[C@@H]3[C@H](CC[C@@]4(C)[C@H]3C[C@H]([N+]3(C)CCCCC3)[C@@H]4OC(C)=O)[C@@]2(C)C[C@@H]1[N+]1(C)CCCCC1 [Pancuronium (Pavulon)] | 0.293
CC(NC(C)(C)C)C(=O)c1cccc(Cl)c1 (configuration not stated) [Amfebutamone (Bupropion)] | -0.0759
CCCc1nc2c(C)cc(-c3nc4ccccc4n3C)cc2n1Cc1ccc(-c2ccccc2C(=O)O)cc1 [Telmisartan (Micardis)] | -1.07
Clc1ccc2nsnc2c1NC1=NCCN1 [Tizanidine HCl] | 1.11
CN1C2CCC1CC(OC(=O)C(O)c1ccccc1)C2 (configuration not stated) [Homatropine Bromide] | 0.922
CCc1cc2c(cc1CC)CC(NC[C@H](O)c1ccc(O)c3[nH]c(=O)ccc13)C2 [Indacaterol Maleate] | -0.712
OCCOCCN1CCN(C(c2ccccc2)c2ccc(Cl)cc2)CC1 (configuration not stated) [Hydroxyzine 2HCl] | 0.684
COc1cccc(N(C)C(=S)Oc2ccc3c(c2)CCCC3)n1 [Liranaftate] | 1.17
